Source: PubChem BioAssay AID2147 (National Center for Advancing Translational Sciences (NCATS), 2009)
“And” between values parts separate entries of the source, which are not always exact repeats. Identical values can stand only once. The campaign covered roughly 230,000 compounds. About 3,600 (1.6%) were called active. Inconclusive results, whose numbers are uncertain, are shown with a selection of clear calls. Calls follow the shape of the dose curve; as a rule, active = well fitted inhibition curve with a large enough effect (not every such curve was filed as active); inconclusive = small, poorly fitted or top-dose-only effect, or another doubt; inactive = no such curve, though single readings can be large or run the other way. Where the call is inconclusive, the potency comes from a doubtful curve fit.

The compounds below were run against Lysine-specific demethylase 4E (Homo sapiens) (UniProt B2RXH2) (assay: qHTS Assay for Inhibitors of Human Jumonji Domain Containing 2E (JMJD2E)). Conditions: JMJD2E catalytic domain, FDH-coupled NADH fluorescence (FDH is formaldehyde dehydrogenase); series mostly up to 57.1 µM.
Chain of UniProt B2RXH2 (B2RXH2 whole entry, looked up, the tested form may be a part): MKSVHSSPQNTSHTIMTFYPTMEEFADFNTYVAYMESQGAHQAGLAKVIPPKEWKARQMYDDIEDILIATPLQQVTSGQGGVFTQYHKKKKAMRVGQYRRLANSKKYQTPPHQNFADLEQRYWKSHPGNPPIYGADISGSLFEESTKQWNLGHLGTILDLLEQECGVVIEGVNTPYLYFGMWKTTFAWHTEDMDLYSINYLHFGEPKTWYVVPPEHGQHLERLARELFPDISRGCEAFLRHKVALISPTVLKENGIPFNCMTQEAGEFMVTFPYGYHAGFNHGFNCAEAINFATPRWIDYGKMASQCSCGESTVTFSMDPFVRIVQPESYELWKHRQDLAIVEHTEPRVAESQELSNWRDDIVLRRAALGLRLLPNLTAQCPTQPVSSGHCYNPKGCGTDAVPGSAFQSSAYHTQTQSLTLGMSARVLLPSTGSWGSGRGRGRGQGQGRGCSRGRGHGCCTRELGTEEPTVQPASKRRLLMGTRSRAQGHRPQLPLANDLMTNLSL
Also: nearly all actives have a fitted effect of over 50% in size.
Potency is read from the fitted curve at half-maximal effect; tags tell the direction and shape of the fitted curve.

| SMILES | Potency |
| --- | --- |
| CC1Nc2ccccc2C(=O)N1NS(C)(=O)=O (stereo not given) | inconclusive: 25.1 µM [inhibitor, partial curve] |
| Nc1c(C(=O)NCCN2CCOCC2)c2nc3ccccc3nc2n1CCc1ccccc1F | inconclusive: 22.4 µM [inhibitor, partial curve] |
| O=C(O)CSc1ncnc2c1sc1nc(-c3ccccc3)c3c(c12)CCC3 | inactive |
| COc1cc(/C=N/NC(=O)/C(=C\c2ccc3c(c2)OCO3)NC(=O)c2ccccc2)ccc1O | inconclusive: 25.1 µM [inhibitor, partial curve] |
| CC1CN(CCCOc2ccccc2-c2ccccc2)CC(C)O1 (stereo not given) | inconclusive: 22.4 µM [inhibitor, single point] |
| COc1ccc(NC(=O)c2ccc(S(=O)(=O)N3CCOCC3)o2)cc1 | inactive |
| C[C@@H](CN(C)C[C@H]1C(=O)O[C@@H]2C[C@@]3(C)CCC[C@]4(CO4)C3CC21)[C@H](O)c1ccccc1 (stereo not given in full) | inactive |
| CCOc1cc(/C=C2\SC(=S)N(C(C(=O)O)c3ccccc3)C2=O)ccc1O (stereo not given) | inactive |
| O=c1cc(C(F)(F)F)[nH]c2ccc(C(F)(F)F)cc12 | inconclusive: 28.2 µM [inhibitor, partial curve] |
| CCCNC(=S)N1CCN(C)CC1 | inconclusive: 31.6 µM [inhibitor, single point] |
| COc1cc2c(cc1OC)-c1cc(OCCN3CCOCC3)nc(=O)n1CC2 | inconclusive: 28.2 µM [inhibitor, partial curve] |
| N#CCc1cc2ccc3cccc4ccc(c1)c2c34 | inconclusive: 35.5 µM [inhibitor, partial curve] |
| CC(=O)N1c2ccccc2C(=O)OC1c1cccnc1 (stereo not given) | inconclusive: 25.1 µM [inhibitor, partial curve] |
| COc1ccccc1CNC(=O)c1ccccc1NS(C)(=O)=O | inconclusive: 25.1 µM [inhibitor, partial curve] |
| CCCN1CCN(CCCNC(=O)CCn2nc(-c3ccccc3)ccc2=O)CC1 | inactive |
| CCOc1cc(/C=C2\N=C(C)OC2=O)cc(Br)c1OCCc1ccccc1 | inactive |
| COc1cc(/C=C2\SC(c3ccccc3)=NC2=O)cc(Cl)c1O | inconclusive: 12.6 µM [inhibitor, partial curve] |
| OCCN(CCO)c1ccc(C(c2ccccc2Cl)c2ccc(N(CCO)CCO)cc2Cl)c(Cl)c1 | inactive |
| Clc1ccc2c(c1)C(N1CCNCC1)=Nc1ccccc1O2 | inactive and inconclusive: 14.1 µM [inhibitor, partial curve] |
| C=CCN(C(=O)CSC1=NC(=O)CN1C(C)=O)c1nc(C)c(-c2ccccc2)s1 | inconclusive: 31.6 µM [inhibitor, single point] |
| COc1cccc(/C=C/C(=O)Oc2ccc(C(=O)c3ccc(F)cc3)cc2)c1 | inconclusive: 25.1 µM [inhibitor, single point] |
| CN1C=CC2=C(C#N)C(N)C(C#N)(C#N)[C@H](c3ccccc3)[C@H]2C1 (stereo not given in full) | inconclusive: 35.5 µM [inhibitor, partial curve] |
| CCN(CC)c1ccc2c(c1)CCCN2 | inconclusive: 25.1 µM [inhibitor, partial curve] |

| SMILES | Potency |
| --- | --- |
| O=C(Oc1ccc2cc(Br)ccc2c1)N1CCCCCC1 | inactive |
| Cc1nnc(NC(=O)c2ccccc2NC(=O)c2ccccc2)s1 | inconclusive: 35.5 µM [inhibitor, single point] |
| Cc1cccn2cc(-c3ccc4c(c3)NC(=O)CO4)nc12 | inconclusive: 35.5 µM [inhibitor, single point] |
| O=C(O)Cn1ncc2ccccc2c1=O | inactive |
| O=C(CSc1nc2nc(-c3cccs3)cc(C(F)(F)F)c2c(=O)[nH]1)Nc1c(F)c(F)c(F)c(F)c1F | inconclusive: 31.6 µM [inhibitor, partial curve] |
| O=C(C1CC1)N1CCc2cc(Br)cc(S(=O)(=O)NCCN3CCOCC3)c21 | inactive |
| COc1ccc(/C=C/C(O)=C2/C(=O)NC3(C)CC2c2ccccc2O3)c(OC)c1OC (stereo not given) | inconclusive: 35.5 µM [inhibitor, partial curve] |
| CCOC(=O)c1nn(-c2ccc3c(c2)OCCO3)cc1O | inconclusive: 31.6 µM [inhibitor, partial curve] |
| Cc1ccc(N(CC2=NCCN2)c2cccc(O)c2)cc1 | inconclusive: 39.8 µM [inhibitor, single point] |
| Cn1ncc(Cl)c1C(=O)Nc1nc2ccc(Cl)cc2s1 | inconclusive: 31.6 µM [inhibitor, single point] |
| S=C1NC2(CCCCC2)NN1c1ccccc1 | inconclusive: 39.8 µM [inhibitor, single point] |
| Cc1ccc(-n2c(-c3ccccc3)c[n+]3c2CCC3)cc1 | inactive |
| COc1ccc(/C=C/C(=O)Nc2ccc(-n3nncc3-c3ccccc3)cc2)cc1OC | inconclusive: 31.6 µM [inhibitor, single point] |
| CCc1ccc(CCC(=O)Nc2ccc(C)c(C)c2)o1 | inactive |
| CCOC(=O)c1sc(C)c2c1NC1(CCCCC1)NC2=O | inconclusive: 25.1 µM [inhibitor, partial curve] |
| Cc1cc(NC(c2ccc(Cl)cc2)c2ccc3cccnc3c2O)no1 (stereo not given) | inconclusive: 39.8 µM [inhibitor, single point] |
| Cc1ccc(CNCC(=O)Nc2cccc(S(=O)(=O)NC3=NCCCCC3)c2)cc1 | inconclusive: 39.8 µM [inhibitor, single point] |
| CCc1ccccc1NC(=O)Nc1cccn(Cc2ccc(F)cc2)c1=O | inconclusive: 31.6 µM [inhibitor, partial curve] |
| COC(=O)[C@@]1(C)CCC[C@@]2(C)c3ccc(O)c(C(C)C)c3CCC21 (stereo not given in full) | inactive |
| COCCCNCCOc1ccc(C(C)(C)c2ccccc2)cc1 | inconclusive: 31.6 µM [inhibitor, single point] |
| c1ccc(-c2cccc(-c3ccccn3)n2)nc1 | inconclusive: 28.2 µM [inhibitor, single point] |
| Cc1cccn2cc(CNC(=O)CC3CCCC3)nc12 | inconclusive: 28.2 µM [inhibitor, single point] |
